From PubChem BioAssay AID488969 (Vanderbilt High Throughput Screening Facility, 2010)
The full ranking holds about 110,000 compounds; the median of “z-score” is about -0.1, and the highest 2% start at about 2. Some of the results follow. Active and inactive are the calls of the source.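 The calls were made as follows: active = z-score in the third read window above 3 or below -3; inactive = the rest.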

target: Metabotropic glutamate receptor 8 (Rattus norvegicus) (UniProt P70579); assay: rat mGluR8 modulators via GIRK flux, primary screen, cell-based, thallium flux, HTS (AID 488969); conditions: HEK293 rat mGluR8, GIRK (G protein-gated inwardly rectifying potassium channel) thallium flux, FluoZin2; at 10 µM; stronger effect = higher value; submaximal glutamate (EC20) added with thallium
Chain of UniProt P70579 (P70579 whole entry, looked up): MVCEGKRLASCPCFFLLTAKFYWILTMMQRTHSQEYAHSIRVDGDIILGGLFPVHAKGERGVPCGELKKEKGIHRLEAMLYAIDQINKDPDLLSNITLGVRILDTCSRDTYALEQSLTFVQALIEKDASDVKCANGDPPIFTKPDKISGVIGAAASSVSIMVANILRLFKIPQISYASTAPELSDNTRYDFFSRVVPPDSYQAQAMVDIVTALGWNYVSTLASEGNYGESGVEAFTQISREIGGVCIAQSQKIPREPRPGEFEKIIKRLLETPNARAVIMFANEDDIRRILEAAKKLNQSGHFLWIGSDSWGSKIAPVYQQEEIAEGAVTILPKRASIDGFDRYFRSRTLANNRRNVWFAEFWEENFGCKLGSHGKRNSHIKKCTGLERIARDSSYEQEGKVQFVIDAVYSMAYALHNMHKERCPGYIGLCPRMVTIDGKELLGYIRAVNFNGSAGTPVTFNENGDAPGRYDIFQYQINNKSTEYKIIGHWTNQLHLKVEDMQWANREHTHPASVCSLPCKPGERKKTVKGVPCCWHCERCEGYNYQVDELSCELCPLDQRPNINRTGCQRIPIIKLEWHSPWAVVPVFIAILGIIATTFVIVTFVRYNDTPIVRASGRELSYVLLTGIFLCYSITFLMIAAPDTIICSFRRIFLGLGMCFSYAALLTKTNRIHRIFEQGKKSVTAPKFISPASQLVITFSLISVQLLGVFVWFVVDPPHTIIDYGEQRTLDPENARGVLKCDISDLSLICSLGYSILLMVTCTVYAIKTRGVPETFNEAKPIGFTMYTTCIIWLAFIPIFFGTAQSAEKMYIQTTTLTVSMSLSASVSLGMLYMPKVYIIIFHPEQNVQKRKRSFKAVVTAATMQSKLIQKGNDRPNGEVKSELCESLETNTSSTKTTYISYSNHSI

Row | SMILES | z-score
1 | Cc1ccc(C)c(S(=O)(=O)N2CCN(CC(=O)NC(=O)NCc3ccccc3)CC2)c1 | -1.57
2 | COc1cccc2cc(C(=O)N3CCN(C(=O)c4ccccc4)CC3)c(=O)oc12 | 0.291
3 | Cc1cc(C)nc(N2CCC(C(=O)O)CC2)n1 | -0.412
4 | O=C(Nc1ccccc1C(=O)N1CCOCC1)c1cccc(S(=O)(=O)N2CCCC2)c1 | 0.0183
5 | COc1ccc(-c2cc(N3C(=O)Nc4ccccc4N3O)n[nH]2)cc1 | 1.88
6 | Cc1nc(S(=O)(=O)c2ccc(Cl)cc2Cl)nc2c1CCC2 | -0.295
7 | CCC(C(=O)Nc1ccccc1)c1ccccc1 (stereo not drawn) | 0.444
8 | O=C(NCc1ccncc1)C(=O)NCC(c1ccco1)N1CCN(c2ccc(F)cc2)CC1 (stereo not drawn) | -0.172
9 | O=C(N/N=C/C1CCCCC1)c1ccccn1 | -0.056
10 | CN(C)S(=O)(=O)c1ccc(NCC2COc3ccccc3O2)c([N+](=O)[O-])c1 (stereo not drawn) | -0.179
11 | CCOc1cc(C2C(C(=O)N3CCOCC3)=C(C)NC3=C2C(=O)CCC3)ccc1O (stereo not drawn) | -0.19
12 | Cc1nc(CS(=O)c2ccc(Cl)cc2)cc(N2CCOCC2)n1 (stereo not drawn) | 0.0146
13 | c1ccc2c(-c3nc(C4CCCCC4)no3)cc(-c3ccncc3)nc2c1 | 0.87
14 | CN(C)S(=O)(=O)c1cc(NC(=O)COC(=O)c2ccc3c(c2)OCO3)ccc1Cl | active: 10.1
15 | COc1cc(OC)c(-n2c(C)cc(C=O)c2C)cc1Cl | 0.207
16 | CN(C)S(=O)(=O)c1cccc(NC(=O)COc2cccc(C#N)c2)c1 | active: 3.82
17 | COc1ccc(CCNc2nc(C)cc(=O)[nH]2)cc1OC | 0.259
18 | C[n+]1c2n(c3ccccc31)N=C(c1ccc(Cl)cc1)CS2 | 0.0842
19 | CCN1C(=O)/C(=C\N2CCN(c3ccc(F)cc3)CC2)SC1=S | 0.0731
20 | CN1C(=O)NC(NC(=O)c2ccco2)(C(F)(F)F)C1=O (stereo not drawn) | 0.842
21 | O=C(Nc1cccc(S(=O)(=O)N2CCCCC2)c1)c1ccc2c(=O)n3c(nc2c1)CCCCC3 | -0.34
22 | O=C(Oc1cccnc1)c1cccc(Cl)c1 | 0.111
23 | CCOC(=O)CN1C(=O)C(O)(c2c(C)[nH]c3ccccc23)c2ccccc21 (stereo not drawn) | 0.217

Row | SMILES | z-score
24 | COc1ccc(OCc2nc(C#N)c(N3CCN(c4ccc(OC)cc4)CC3)o2)cc1 | 0.916
25 | Cn1c(NCc2ccccc2)cc(=O)n(C)c1=O | 0.432
26 | COc1ccc(OC)c(NC(=O)Cn2cc(C#N)c3ccccc32)c1 | -0.119
27 | C=CCNC(=O)/C(=C\C=C\c1ccccc1)NC(=O)c1ccc(OCCCC)cc1 | -0.246
28 | C=CCOc1ccccc1CNn1nnnc1N | 0.0758
29 | CCCCCn1c(CCNC(=O)c2cccs2)nc2ccccc21 | -0.977
30 | Cc1ccc(S(=O)(=O)Nc2ccccc2C(=O)Nc2nc(-c3ccc(F)cc3)cs2)cc1 | 0.463
31 | COc1ccc(-c2noc(CSc3nc(-c4ccccc4)cc(=O)[nH]3)n2)cc1 | 0.593
32 | CCOc1cccc(-c2nnc3sc(COc4ccc(Cl)cc4)nn23)c1 | 0.486
33 | N#C/C(=C\c1cn(Cc2ccc(C#N)cc2)c2ccccc12)C(=O)NCc1cccs1 | -0.161
34 | C[C@H](N)c1nnc(SCc2c(Cl)cccc2Cl)o1 | 0.175
35 | Cc1noc(C)c1C(=O)OCC(=O)c1c[nH]c2ccccc12 | 0.313
36 | COc1ccc2cc(C(=O)NCCO)sc(=O)c2c1OC | -0.297
37 | CCOC(=O)C1CCCN(CC(=O)Nc2c(C(=O)OC)[nH]c3ccc(Cl)cc23)C1 (stereo not drawn) | -0.59
38 | Cc1ccc(C(=O)Nc2c(C(=O)N3CCOCC3)cnn2-c2ccccc2)cc1 | -0.509
39 | CC1(C)C=C(c2ccc(C(=O)O)s2)CC(C)(C)N1 | -0.278
40 | CCCC(=O)Nc1ccc(N2CCN(C(=O)CCC)CC2)cc1 | -0.88
41 | COC(=O)c1ccc(NC(=O)CCN2CCN(Cc3ccccc3)CC2)cc1 | -0.104
42 | CC(C)c1nc2ccccn2c1NC1CCCCC1 | 0.45
43 | CCn1c(-c2cccnc2Cl)nc2cc(Cl)c(Cl)cc21 | -0.597
44 | Cc1coc(NC(=O)CSc2nc(-c3ccncc3)cc(C(F)(F)F)c2C#N)n1 | 0.412
45 | CCOC(=O)/C(=N\Nc1ccc(Cl)cc1)Sc1nnc(-c2ccc(OC)cc2)n1C | -0.112
46 | OCCNCCCCCOc1ccc(F)cc1 | -0.393

Row | SMILES | z-score
47 | CC(C)c1nnc(NC(=O)c2c(O)c3cccc4c3n(c2=O)CCC4)s1 | -1.01
48 | O=c1c2ccsc2ncn1Cc1cccc(C(F)(F)F)c1 | -0.17
49 | COc1ccc(C(=O)/C=C/c2ccc(C)cc2)c(OC(=O)c2ccc([N+](=O)[O-])cc2)c1 | 0.0347
50 | Cc1cc(C)nc(SCC(=O)NC2=NC(=O)C(C)S2)n1 (stereo not drawn) | 0.0487
51 | Cc1ccc(C(=O)c2c(NC(=O)c3ccccc3C)sc(C)c2C)cc1 | -0.151
52 | CC(NC1CCCC1)C(=O)Nc1ccccc1-c1ccccc1 (stereo not drawn) | -0.0603
53 | C=CCNC(=S)NNC(=O)c1cccn(Cc2ccc(Cl)c(Cl)c2)c1=O | -0.8
54 | CCCc1nc(SCC(=O)Nc2ccccc2)c2c(=O)n(C)c(=O)n(C)c2n1 | 0.298
55 | CCN(CC(=O)Nc1cc(C)nn1-c1nc(C)cc(C)n1)Cc1ccccc1 | 0.172
56 | Cc1ccc(N/C(CSC(N)=O)=N\S(=O)(=O)c2ccc(C)cc2)cc1 | -0.0542
57 | CCOC(=O)C1=C(C)NC2=C(C(=O)CC(c3ccc(OC)c(OC)c3)C2)C1c1ccc(C)o1 (stereo not drawn) | active: 4.89
58 | CSc1cccc(NC(=O)CN(c2cccc(C)c2)S(C)(=O)=O)c1 | 0.00929
59 | O=C(Nc1ccccc1)OCC1CCCN2CCCCC12 (stereo not drawn) | 0.261
60 | O=C(Nc1ccccc1-c1nnc(SCc2ccc(Cl)cc2Cl)o1)c1ccccc1 | 0.141
61 | CC[n+]1c(/C=C(/C)SC)sc2ccccc21 | -0.18
62 | Cc1cccc(NC(=O)CN2C(=O)NC(C)(c3ccc4c(c3)OCO4)C2=O)c1 (stereo not drawn) | -0.436
63 | CCOc1cc(/C=C2\CCC/C(=C\c3cc(Cl)c(O)c(OCC)c3)C2=O)cc(Cl)c1O | 1.62
64 | O=C(C[n+]1cc(-c2ccccc2)n2c1CCC2)Nc1nc(-c2ccccc2)cs1 | -0.72
65 | O=C(OCC(=O)N(Cc1ccccc1)C1CCS(=O)(=O)C1)c1cc2c(s1)CCCC2 (stereo not drawn) | -0.557
66 | CCCS(=O)(=O)c1c(S(=O)(=O)CCC)c2c(C)cccn2c1C(=O)OC | -0.0581
67 | Cc1cccc(-n2c(SCN3C(=O)c4ccccc4C3=O)nc3ccccc3c2=O)c1 | 0.48
68 | CC1(C)CC1C(=O)Nc1ccc([N+](=O)[O-])cc1Br (stereo not drawn) | -0.538
